# Test results as given in patent publication US20120004205A1, “IL-13 INDUCED GENE SIGNATURE FOR EOSINOPHILIC ESOPHAGITIS” (Cincinnati Children's Hospital Medical Center, priority 2008, published 2012).
# Tested on: human esophageal epithelial cell lines (TE-1, TE-6, TE-7, and TE-13)
# Assay: Eotaxin-1 and eotaxin-2 expression after IL-13 stimulation, real-time PCR
# Format: cell-based
substance,measurement,value
IL-13: cytokine Interleukin 13 (Preprotech) added to culture media to stimulate esophageal cells,eotaxin-1 and eotaxin-2 expression after IL-13 stimulation,not overexpressed
